# In the BET-seq Pho4 binding data (Le et al. 2018):
# This is one part of the list. These are noisy estimates, calculated here from bound and input reads.
# Biological target: T1, Pho4 (S. cerevisiae) (UniProt P07270)
# T1 sequence: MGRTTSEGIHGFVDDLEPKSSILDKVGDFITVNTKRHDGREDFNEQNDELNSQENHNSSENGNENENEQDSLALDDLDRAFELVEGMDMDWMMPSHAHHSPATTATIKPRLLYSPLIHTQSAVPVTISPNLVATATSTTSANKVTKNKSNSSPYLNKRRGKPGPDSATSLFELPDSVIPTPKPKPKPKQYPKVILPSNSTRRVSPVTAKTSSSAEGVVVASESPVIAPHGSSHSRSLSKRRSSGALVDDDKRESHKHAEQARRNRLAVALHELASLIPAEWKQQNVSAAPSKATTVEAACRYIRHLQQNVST
# Assay: relative binding free energy (BET-seq); higher = weaker binding
# Settings: reference: library average
row,Sequence,relative binding free energy [kcal/mol]
1,GACATCACGTGTGTGG,0.23
2,ATTAGCACGTGGGAGC,-0.15
3,TTTGACACGTGTCCGT,0.02
4,TGTCACACGTGGTTGT,0.12
5,TTAGGCACGTGTGACG,-0.03
6,TGCGGCACGTGTAGAT,0.14
7,TGGTTCACGTGTCCAT,0.22
8,GAAGTCACGTGTGTTA,0.18
9,TGTAGCACGTGAAATT,0.22
10,CTGGTCACGTGTTTTG,0.07
11,TTTGTCACGTGTAGTC,0.07
12,TTATTCACGTGTTTTT,0.28
13,ATGTACACGTGGGCTG,0.03
14,TGGTACACGTGCGCGG,-0.06
15,ACATTCACGTGTTCGG,0.43
16,ATGTACACGTGAGGGC,0.2
17,GTGTTCACGTGATTGT,0.37
18,GACGACACGTGGGGGT,-0.07
19,TTAGGCACGTGGGGGT,-0.2
20,TGGGGCACGTGTGAGT,0.02
21,CTTGTCACGTGTTGTA,0.15
22,AGTGTCACGTGTGGAC,0.07
23,TAGGTCACGTGTTGAT,0.15
24,CGTTGCACGTGTGTTT,0
25,TTTTACACGTGGTCTA,0.11
26,TTGGGCACGTGAATAT,0.17

row,Sequence,relative binding free energy [kcal/mol]
1,GTGTGCACGTGTCGTG,0.03
2,AGTCGCACGTGAATTG,0.13
3,TGCTACACGTGTTTGA,0.08
4,AGTTTCACGTGTGGCA,0.3
5,CATATCACGTGGGTTA,0.01
6,ACTTGCACGTGTGCGG,-0.08
7,TTCGTCACGTGGAGGC,0.02
8,TTGCTCACGTGTTTGG,0.3
9,TTTTACACGTGGACGG,0.24
10,AGTAGCACGTGGGCGG,-0.12
11,AGGTGCACGTGCGGAG,-0.07
12,TGTGGCACGTGTCGTG,-0.14
13,GGTACCACGTGCGGTG,-0.11
14,ATTGTCACGTGAAGTG,0.43
15,TGGTACACGTGGTCCT,0.12
16,GGTTGCACGTGTGATG,0.1
17,TTCTTCACGTGGCGGC,0.48
18,GTGATCACGTGCGTGT,0.02
19,TGGTTCACGTGTGTTT,0.28
20,GGTGACACGTGTGTGG,0.05
21,TGGGACACGTGGTTAG,-0.07
22,GATGTCACGTGACATG,0.29
23,TACGTCACGTGTACGG,0.19
24,GGTAGCACGTGCGCTT,-0.02
25,TGTATCACGTGGGAGA,0.11
26,GATTACACGTGATAGT,0.3

row,Sequence,relative binding free energy [kcal/mol]
1,TTGTGCACGTGCGTGG,-0.13
2,GCGGTCACGTGAGCGG,0.32
3,GTGGACACGTGTTGTG,0.1
4,ATTAACACGTGATTTT,0.16
5,GTTGTCACGTGAGTGA,0.39
6,CCGGGCACGTGGATGT,-0.08
7,GAATTCACGTGAGGGT,0.45
8,GGTGACACGTGCGAGG,0.05
9,GTAAGCACGTGGTCGG,-0.12
10,ATGCGCACGTGAATTT,0.24
11,ATAGTCACGTGCGGTA,0.04
12,GCGATCACGTGAGGGT,0.38
13,CATTGCACGTGGATGG,-0.04
14,GTAATCACGTGTTGAA,0.16
15,CGGGGCACGTGGTGTA,-0.09
16,TGAGTCACGTGTGATC,0.11
17,TCGTACACGTGTAGTG,0.06
18,GGGATCACGTGCGTAG,0.14
19,TAGCACACGTGGGGTT,-0.18
20,TGTCGCACGTGATGAG,0.12
21,AAGATCACGTGGTGGG,0.06
22,GCGGGCACGTGTCTGG,-0.09
23,AACGGCACGTGGGCGT,-0.18
24,GGCCGCACGTGGGGGT,-0.33
25,TCGGACACGTGTAGTA,0.22
26,GGGGACACGTGGAGTC,0.15

row,Sequence,relative binding free energy [kcal/mol]
1,AAAAGCACGTGGTGCT,-0.07
2,CGTGGCACGTGCTTTG,-0.1
3,TTATGCACGTGTTCGA,-0.13
4,TGTTTCACGTGATATA,0.3
5,TTTATCACGTGTGTTG,0.17
6,TCTGCCACGTGGTTTG,-0.08
7,AGTGGCACGTGGGCGT,-0.31
8,CTGCGCACGTGAGTTG,0.14
9,TGTTCCACGTGCGGTG,0.02
10,GGTATCACGTGGTTCT,0.03
11,AAGATCACGTGAAAGG,0.36
12,CGTGTCACGTGTTTGC,-0.04
13,TTAGTCACGTGAGTTC,0.35
14,TATGGCACGTGTTGTC,-0.06
15,TGGTGCACGTGAATGA,0.35
16,ATGAGCACGTGAAGTG,0.29
17,ATATACACGTGTCTGT,0.03
18,AGTGTCACGTGACATG,0.11
19,TTGTTCACGTGTCTAG,0.32
20,TAAGACACGTGTGGAT,0.08
21,GGGGGCACGTGAACGG,0.18
22,TAATACACGTGATATT,0.14
23,ATAGTCACGTGCGAGG,0
24,GGTAACACGTGTTTAA,0.05
25,AGGGGCACGTGGTGCA,-0.25
26,TGTTTCACGTGAGGTC,0.43

row,Sequence,relative binding free energy [kcal/mol]
1,AAGTTCACGTGTACGT,0.28
2,TCTTGCACGTGATCGT,0.14
3,CGTGTCACGTGGGTAC,-0.02
4,GGGTCCACGTGTAGAG,0.24
5,GGTTGCACGTGGGGGT,-0.08
6,GGGAACACGTGAGGAT,0.32
7,GATGGCACGTGTGCGC,0.02
8,AGTTTCACGTGATGTC,0.18
9,GATTACACGTGGTGAG,0.16
10,TGAGGCACGTGAAGGA,0.16
11,GCTCGCACGTGTAGGG,0.09
12,TGTATCACGTGCGAAG,0.11
13,ATTGTCACGTGATTAA,0.31
14,GTTAGCACGTGTGTTG,-0.03
15,ATAGTCACGTGTGGAA,0.11
16,GTGCTCACGTGGTGAG,0.28
17,GGCGTCACGTGGGCTG,-0.09
18,TTGTTCACGTGTGCGT,0.18
19,TGGCGCACGTGGAGGG,-0.22
20,TGTGTCACGTGGCGCA,-0.04
21,TAGGGCACGTGACGTA,-0.2
22,AGCGACACGTGTTGGG,-0.03
23,ATCATCACGTGCAGGT,0.29
24,AAGATCACGTGAAGGG,0.23
25,TGTTGCACGTGGACGA,-0.01
26,ACATGCACGTGTGTGG,0

row,Sequence,relative binding free energy [kcal/mol]
1,AGGGGCACGTGGGAGT,-0.15
2,TTGTTCACGTGGAGGC,0.25
3,TTAAACACGTGTTTCG,-0.13
4,AATTTCACGTGTGAGA,0.38
5,AGGTACACGTGATGGC,0.19
6,TCGTACACGTGGGGAA,-0.02
7,ATGCTCACGTGGTAAT,0.28
8,TTTGGCACGTGTATAA,-0.08
9,GACTTCACGTGGTGTT,0.2
10,TGCTGCACGTGATATG,0.04
11,CGGTTCACGTGTTGAG,0.13
12,AATAACACGTGATGGT,0.17
13,ATCATCACGTGGTGGG,0.12
14,TTAAGCACGTGCGTTA,-0.18
15,AGGTGCACGTGGCGGA,-0.07
16,GGGTTCACGTGTTCTG,0.27
17,CGGGGCACGTGTAGGC,-0.09
18,ATGTCCACGTGTTGGA,-0.03
19,ATTAGCACGTGGGATC,-0.17
20,TGGCACACGTGAAGGG,0.29
21,TTATCCACGTGGAGGG,-0.02
22,ATTTCCACGTGGTCGT,-0.08
23,TTATTCACGTGGAGTT,0.31
24,TGGTACACGTGGGGCG,-0.01
25,ACTGTCACGTGGTGAT,-0.07
26,AGGTTCACGTGTCTGG,0.24

row,Sequence,relative binding free energy [kcal/mol]
1,GGTTTCACGTGATATA,0.27
2,ACGGGCACGTGTAGAT,0.16
3,CTGTGCACGTGCGTGG,-0.15
4,ATTTGCACGTGAAGAG,0.16
5,TTGCGCACGTGGAAGA,0.12
6,TGGTGCACGTGAACTA,0.32
7,GGTATCACGTGGCATT,0
8,TTCGTCACGTGTTGAG,0.07
9,ACTCTCACGTGGGGTG,0.16
10,TTCTGCACGTGTTTAT,-0.04
11,ACGGCCACGTGGTTGG,-0.06
12,TTGTTCACGTGCAGTC,0.33
13,CTTAGCACGTGGCGTG,-0.17
14,ATATTCACGTGTCATA,0.21
15,TCGCGCACGTGTTAGG,-0.02
16,CGAAACACGTGGGGTT,-0.14
17,TTAGGCACGTGTTTAG,-0.2
18,GTTTGCACGTGGTCTC,0.08
19,CGGTTCACGTGGGGCC,0.19
20,GGCCGCACGTGGGAGT,-0.12
21,TTGGCCACGTGAATGG,0.15
22,TGTCACACGTGTTAGA,0.24
23,GCTTGCACGTGATTGT,0.14
24,AAATTCACGTGCGGTT,0.29
25,AGTCGCACGTGTATGG,-0.02
26,AGTATCACGTGTTGAT,0.17

row,Sequence,relative binding free energy [kcal/mol]
1,TTTCTCACGTGTGTTT,0.2
2,AGTGACACGTGGGGAC,-0.22
3,CGCGGCACGTGTTGGT,-0.11
4,AAAGTCACGTGGGACT,0.22
5,AGCAACACGTGTTGGT,0
6,CGTATCACGTGTAGGA,0.07
7,ATATTCACGTGGTGTG,0.03
8,GGGGGCACGTGGACGA,-0.14
9,TCGTCCACGTGATGGG,0.16
10,TTGTTCACGTGACGAA,0.26
11,AGTGTCACGTGTTCGA,0.06
12,TGGGTCACGTGTCGCG,0.08
13,ATGTACACGTGTTTCT,0.05
14,GGGTTCACGTGCGCGT,0.28
15,GCCTGCACGTGAGGGG,0.17
16,TGTGTCACGTGAAGTT,0.26
17,TTCGACACGTGGTAGG,0.02
18,TGTGGCACGTGGCTAA,-0.34
19,GGGGGCACGTGGTCTT,-0.18
20,CTGTTCACGTGGTATT,0.17
21,AAGGGCACGTGGATTA,-0.13
22,TCAGACACGTGGGGGG,-0.17
23,TGGATCACGTGGGCAA,-0.04
24,GTGCACACGTGATGGT,0.1
25,TTTGACACGTGAGGTA,0.24
26,GGGTACACGTGGTTTA,0.19

row,Sequence,relative binding free energy [kcal/mol]
1,CATGTCACGTGGGGTG,-0.03
2,GAGGACACGTGCGGGG,0.03
3,TCAAGCACGTGGAGGT,-0.03
4,AAGTGCACGTGTACGT,0
5,AGTTACACGTGTTCTA,0.29
6,TGGTGCACGTGGTCGT,-0.08
7,GGAGGCACGTGGAAAG,-0.02
8,TGTTTCACGTGCTCAT,0.15
9,ATAAGCACGTGTGTAG,-0.1
10,GCCATCACGTGTGGTG,0.24
11,AATGACACGTGTGGGC,0.13
12,CGGCACACGTGGTGAT,0.09
13,TATGACACGTGCGTGT,-0.05
14,GTGTGCACGTGCAACG,0.19
15,GTTGTCACGTGCGAGT,0.09
16,GAAGGCACGTGTTCGT,-0.04
17,CGTATCACGTGTGGGC,0.13
18,GAGGCCACGTGGTTGT,-0.12
19,AGGGACACGTGGTTGA,-0.04
20,CGCCACACGTGGGGGG,-0.14
21,CAAGGCACGTGGTAAG,-0.15
22,TCGTTCACGTGGCTGA,0.36
